Experimental data: PubChem BioAssay AID1346428 (National Center for Advancing Translational Sciences (NCATS), 2018)
The campaign covered roughly 48,000 compounds. About 1,200 (2.5%) were called active. Not shown: some 2% with an inconclusive outcome.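 How the source made its calls: active means activation of at least 60% and not above a set upper limit (about 1 call in 100 departs from these limits); inconclusive means activation of 40% to 60%, or above that upper limit; inactive means activation under 40%.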 Some of the results follow.

Target: Probable G-protein coupled receptor 32 (Homo sapiens) (UniProt O75388)
UniProt O75388, sequence (O75388 whole entry, looked up): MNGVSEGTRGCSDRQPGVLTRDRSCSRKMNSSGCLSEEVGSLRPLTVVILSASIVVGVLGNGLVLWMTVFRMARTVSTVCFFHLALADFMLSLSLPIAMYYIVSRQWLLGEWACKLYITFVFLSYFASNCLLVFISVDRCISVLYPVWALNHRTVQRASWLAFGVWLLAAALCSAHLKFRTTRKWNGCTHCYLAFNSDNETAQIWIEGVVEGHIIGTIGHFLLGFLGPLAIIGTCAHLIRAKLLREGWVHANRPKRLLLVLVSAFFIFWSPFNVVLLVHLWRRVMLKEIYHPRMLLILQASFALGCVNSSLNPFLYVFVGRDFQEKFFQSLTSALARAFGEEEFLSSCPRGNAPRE
Experiment: qHTS for Agonists of Human Resolvin D1 Receptor DRV1; further: 0% is about no effect
Conditions: CHO-K1 GPR32 beta-arrestin PathHunter luminescence, 90 min; at 76.9 µM; stronger effect = higher value; zero percent set by DMSO-only wells
In short: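 CHO-K1 cells stably expressing ProLink-tagged GPR32 and Enzyme Activator-tagged beta-arrestin were seeded at 2,500 cells/well overnight, exposed to compounds for 90 min at 37 °C, then read by beta-Gal complementation chemiluminescence after 1 h detection reagent.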

activation, active:
CCOc1ccc(NC(=O)Nc2cc3c(cc2N2CCCCC2)n(C)c(=O)n3C)cc1 107%
Cc1c(C(=O)OC2CCCCCC2)[nH]c2c1C(=O)CC(c1ccccc1)C2 (stereo not drawn) 78.6%

activation, inactive:
CCOC(=O)c1ccc(NC(=O)CCc2c(C)nc3c(c(C)nn3C(C)(C)C)c2C)cc1 31.5%
Cc1nn(CC(=O)N2CCN(c3cccc(Cl)c3)CC2)c(=O)c2c1sc1ccccc12 -5.48%
CCc1ccc(-n2nc(C)c3c(C(=O)N4CCN(c5cccc(Cl)c5)CC4)cc(C)nc32)cc1 -12.8%
COc1cc(OC)c(NC(=O)NCc2cccn2Cc2ccccc2)cc1Cl -24.2%
CCOc1cc(C(=O)OCc2cc(=O)n3nc(C4CC4)sc3n2)cc(OCC)c1OCC -8.29%
CC(C)CCNC(=O)c1ccc(Cn2c(SCC(N)=O)nc3ccccc3c2=O)cc1 5.06%
O=C(Cn1c(=O)n(Cc2ccccc2)c(=O)c2sc3ccccc3c21)Nc1ccc(F)cc1 -3.89%
CC1=C(C(=O)N2CCN(c3ccc(Cl)cc3)CC2)C2(CCC(C)CC2)OC1=O (stereo not drawn) -12.7%
CCCCN(CC)CCCNC(=O)c1cc2c(=O)oc3ccc(C)cc3c2s1 -28.3%
CCCC(=O)Nc1ccc(OCC(O)CNC(C)C)c(C(C)=O)c1 (stereo not drawn) -9.6%
Cc1ccc(C)c(Cn2c(=O)n(CCCC(=O)NCCc3ccc(Cl)cc3)c(=O)c3ccccc32)c1 -0.443%
COc1ccc(-c2nc3sc(CCNC(=O)C(=O)Nc4ccc(C)c(C)c4)c(C)n3n2)cc1 -6.77%
CCOC(=O)c1cc(-c2ccccc2)n(CC(=O)NCc2ccccc2)c1C -13.9%
O=C(COc1ccc(Cl)cc1)NCC(c1cccs1)S(=O)(=O)c1ccc(F)cc1 (stereo not drawn) 35.6%
CCOC(=O)c1ccc(NC(=O)CC2C(=O)N(c3cccc(C)c3)C(=O)N2CCOC)cc1 (stereo not drawn) 10%
CCOc1ccc(-c2nonc2NC(=O)c2ccco2)cc1OCC -8.35%
CC(C)c1ccc(NC(=O)c2cnc3sc(N4CCCC4)nn3c2=O)cc1 -4.75%
CCOc1ccccc1CNC(=O)c1cc2c(=O)n(Cc3ccco3)ccc2nc1C -9.57%
COc1ccc(OC)c(-c2csc(-c3c(N)c(C(=O)c4ccc(Cl)cc4)n4ccccc34)n2)c1 10.3%
CCOc1cc(CNC(=O)NC2COc3ccccc3C2)cc(OCC)c1OCC (stereo not drawn) -14.1%
Cc1ccc(OCC(=O)Nc2nnc(SCc3cc(=O)n4cccc(C)c4n3)s2)cc1 -7.71%
COc1cc(NC(=O)CN2CCCN(S(=O)(=O)c3ccc(F)cc3)CC2)cc(OC)c1 11%
O=C(Nc1ccccc1Br)c1cc(S(=O)(=O)NC2CCCCC2)ccc1F -31.5%
C=CCc1cccc2cc(-c3nc4ccc(C(=O)O)cc4[nH]3)c(=O)oc12 16.1%
Cc1ccc2nc(-c3ccc(NC(=O)COc4ccccc4C(C)(C)C)cc3)sc2c1 8.28%
CCOC(=O)c1cc(S(=O)(=O)Nc2c(C)cc(C)cc2C)[nH]n1 -15.5%
CCOCCCNC(=O)c1ccc(Cn2c(=O)c3cccn3c3cccnc32)cc1 -2.35%
Cc1ccc(C)c(NC(=O)C2CCCN2S(=O)(=O)c2ccc3c(c2)n(C)c(=O)c(=O)n3C)c1 (stereo not drawn) -8.59%
COc1ccc(C2C(C(=O)Nc3cccnc3)=C(C)Nc3nc(SCc4ccccc4)nn32)cc1 (stereo not drawn) 0.433%
CCOC(=O)N1CCN(c2ncc3c(n2)CC(c2ccc(Cl)cc2)CC3=O)CC1 (stereo not drawn) 11.1%
CC(=O)NC(C)c1nc2ccccc2n1Cc1ccccc1Cl (stereo not drawn) -16.8%
COc1ccc(-c2noc(-c3cc(-c4ccc(F)cc4)n[nH]3)n2)cc1 15.2%
O=C(NCc1ccc(F)cc1)c1nnc(Cc2cccc(F)c2)o1 -2.55%
CCOC(=O)CCCCN(Cc1ccccc1F)S(=O)(=O)c1ccc(F)c(C(=O)Nc2cc(Cl)cc(Cl)c2)c1 -23.3%
COc1cc(-c2noc(-c3ccc(NC4CCCC4)c([N+](=O)[O-])c3)n2)cc(OC)c1OC -14.7%
CN(c1ccc(F)cc1)S(=O)(=O)N1CCCC(C(=O)NCCc2ccccc2)C1 (stereo not drawn) -5.88%
COc1ccc(C2=NC(C)(C)N(CC(=O)Nc3cc(OC)cc(OC)c3)C2=O)cc1 -25.6%
Cc1ccc(-c2cc3nccc(-c4cc([N+](=O)[O-])ccc4O)n3n2)cc1 -42.8%
CCN1CCN(c2cc(C)c3cc(NC(=O)/C=C/c4cccc(OC)c4OC)ccc3n2)CC1 -14.7%
CCCOc1ccc(-c2nc3ccc(Br)cc3c(=O)o2)cc1 18.4%
CCCCNC(=O)CSc1nc2n[nH]c(C)c2c(=N)n1-c1cccc(C)c1 -12.7%
CCOC(=O)C1CCN(C(=O)c2ccc3c(c2)sc2nc(-c4ccc(OC)cc4)cn23)CC1 -0.0722%
CCOc1ccc(S(=O)(=O)NCc2nc3cccnc3n2Cc2ccccc2OC)cc1 -20.1%
Cc1nc2ccc(S(=O)(=O)NC(CC(C)C)C(=O)NCc3ccc(Cl)cc3)cc2s1 (stereo not drawn) -13.1%
CCCc1nnc(NC(=O)Cc2coc3c(C)c(C)ccc23)s1 -0.0309%
Cc1cccc(OCC(=O)Nc2ccc3c(c2)nc(CN2CCCCC2)n3C)c1 7.19%
Cc1ccc(-n2ncc3c(N4CCN(Cc5ccccc5)CC4)ncnc32)cc1Cl 16.4%
CCc1cc(=O)[nH]c(SCc2nc(-c3cccc(Cl)c3)no2)n1 7.47%
CC(C)c1ccc(NC(=O)C2CCCN2S(=O)(=O)c2ccc3nc(-c4ccccc4)[nH]c3c2)cc1 (stereo not drawn) -0.0263%
O=C(COCc1cc(-c2cccs2)on1)NCc1ccc(F)cc1 -8.63%
O=C(Nc1ccc(Cl)cc1)c1ccc(-n2cnnc2)cc1 -7.7%
